Data on six molecules can be found in PMC12136788.

T1: UNK ZnF1-6 (called full-length) (human, UniProt Q9C0B0 30-357)
T1 sequence: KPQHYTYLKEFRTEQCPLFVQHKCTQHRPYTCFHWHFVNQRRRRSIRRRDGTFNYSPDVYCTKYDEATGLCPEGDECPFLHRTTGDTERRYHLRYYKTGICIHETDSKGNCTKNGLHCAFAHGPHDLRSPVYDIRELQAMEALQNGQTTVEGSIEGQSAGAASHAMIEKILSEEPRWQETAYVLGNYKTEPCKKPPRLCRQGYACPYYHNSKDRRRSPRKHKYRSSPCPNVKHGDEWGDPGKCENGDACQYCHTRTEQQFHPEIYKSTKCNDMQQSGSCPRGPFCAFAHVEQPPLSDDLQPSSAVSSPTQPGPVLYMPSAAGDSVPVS

B1: chr1:193096648:193096749:-|CDS|ENSG00000023572|msi1_unk|FALSE|overlapping (ssRNA)
RNA: GGGAGUUCUACAGUCCGACGAUCCAACAGGUUCCAAGAAUAUUUGUCAAUGGUACUUUUAUUGGAGGUGCAACUGACACUCAUAGGCUUCACAAAGAAGGAAAAUUGCUCCCACUAGUUCAUCAGUGUUAUUUAAAAAAAAGUCAACAGAGGAUUGAGCAUCA
B2: ENSG00000136451:be:win_1901|3pUTR|ENSG00000136451|bound_else_gene|NA|bound_elsewhere_windowed (ssRNA)
RNA: GGGAGUUCUACAGUCCGACGAUCUCCCAAGGAAUCACUUUAUUGUAAACACUAGCAGAACUCUUCUCCCUAUACAAGGUGGAUGGCUGAUUUUAACCUGAAAUUUUAAAUCCACAGAUUGAGAGCUAGUGUAGAAUUGUCUGUCAACAGAGGAUUGAGCAUCA
B3: ENSG00000186575:stop:overlap|stop_codon|ENSG00000186575|stop_codon|NA|stop_codon (ssRNA)
RNA: GGGAGUUCUACAGUCCGACGAUCCCAUUAAAAAGCUCACCUUGCAGAGCGCCAAGUCCCGAGUGGCCUUCUUUGAAGAGCUCUAGCAGGUGACCCAGCCACCCCAGGACCUGCCACUUCUCCUGCUACCGGGACCGCGGGAUGCAACAGAGGAUUGAGCAUCA
B4: chrX:80717640:80717741:-|CDS|ENSG00000165288|msi1|FALSE|unique (ssRNA)
RNA: GGGAGUUCUACAGUCCGACGAUCCUGAGAAGUCCAAACAUGGACAUAUCUUCUUCCCCAAACAUCAGGCUUCGAAGACAUAGUAGUCAAAUUGAAGGUGUUAGACAAAUGCAUAACAAUGCUCCUCGGAGCCAGAUGGCCACUCAACAGAGGAUUGAGCAUCA
B5: chr2:171482635:171482736:+|3pUTR|ENSG00000115827|unk|FALSE|unique (ssRNA)
RNA: GGGAGUUCUACAGUCCGACGAUCCAAGAGUGUUUCAGAAUAGGAUGUCUUAAGACUUCAGUCAUGUCAGAGAUUUUUUUUUUUAGGUGAUUAUUGAGUUUCUCCUUCUCCUUUAAGUCAUCACCUUCCUUUUAUGAAAUGAUACAACAGAGGAUUGAGCAUCA
B6: chr3:58425360:58425463:+|3pUTR|ENSG00000168297|unk|total|mutant (ssRNA)
RNA: GGGAGUUCUACAGUCCGACGAUCAGACAGCUCCCCGAAACAUUCCUCUUACAGUUCAUUUCUCUAAAGCAUUUUCUGAUUCUCCGAUAACUCCAAUUUUUGCUACCUUUAUCUCCGACAUUAACACUACCGCCCAAAGCACCGCAACAGAGGAUUGAGCAUCA

This is one part of the list.

For the assay, the target named is T1, UNK ZnF1-6 (called full-length). The experiment in a line: nsRBNS (natural sequence RNA bind-n-seq); RBNS binding buffer (assumed for nsRBNS): 25 mM Tris pH 7.5, 150 mM KCl, 3 mM MgCl2, 0.01% Triton X-100, 500 ug/ml BSA, 20 U/ml SUPERase-In, 4 C; UNK is unkempt and MSI1 is Musashi-1; names of the RNAs are library labels; protein concentration not given here; high values mean tight binding.
As to B1, the binding signal came out at 5.63 enrichment R.
The molecule B2 came in with a binding signal of 0.417 enrichment R.
In turn, B3 yielded a binding signal of 0.727 enrichment R.
In turn, B4 registered a binding signal of 0.592 enrichment R.
Turning to B5, the binding signal was found to be 1.03 enrichment R.
Take B6: the binding signal amounted to 0.66 enrichment R.
